These are yes or no findings as the source states them, for the method shown. Binding seen in cells or lysates may run through a third protein. Some results given as binding are weak or reduced against the parent protein; the word gives no strength.

Chains of the proteins cited; added tags and fusions are not shown. Lines headed by an entry give the natural chain unless they say otherwise; changes in a name come on top.
UniProt P42229: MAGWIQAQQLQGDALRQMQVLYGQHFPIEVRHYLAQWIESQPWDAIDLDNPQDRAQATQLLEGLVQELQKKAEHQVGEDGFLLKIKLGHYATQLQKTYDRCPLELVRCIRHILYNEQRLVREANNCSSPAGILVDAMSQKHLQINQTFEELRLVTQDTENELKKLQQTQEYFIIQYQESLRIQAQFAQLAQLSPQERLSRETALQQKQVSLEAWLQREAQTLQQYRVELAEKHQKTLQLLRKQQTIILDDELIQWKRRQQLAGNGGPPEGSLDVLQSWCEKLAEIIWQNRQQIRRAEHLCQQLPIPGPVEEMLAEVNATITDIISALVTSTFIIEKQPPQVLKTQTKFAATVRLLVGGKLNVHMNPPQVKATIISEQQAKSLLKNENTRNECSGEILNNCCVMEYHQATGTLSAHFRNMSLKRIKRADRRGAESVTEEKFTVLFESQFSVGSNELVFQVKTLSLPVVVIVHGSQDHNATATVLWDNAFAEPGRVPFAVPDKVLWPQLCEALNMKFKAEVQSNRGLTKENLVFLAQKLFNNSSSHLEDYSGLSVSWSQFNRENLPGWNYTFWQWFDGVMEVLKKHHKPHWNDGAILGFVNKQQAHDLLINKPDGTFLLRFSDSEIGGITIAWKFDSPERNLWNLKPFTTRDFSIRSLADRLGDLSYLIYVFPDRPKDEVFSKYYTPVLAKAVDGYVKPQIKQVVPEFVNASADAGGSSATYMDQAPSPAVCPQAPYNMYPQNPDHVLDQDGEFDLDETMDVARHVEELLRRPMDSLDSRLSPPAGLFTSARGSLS
UniProt P14618: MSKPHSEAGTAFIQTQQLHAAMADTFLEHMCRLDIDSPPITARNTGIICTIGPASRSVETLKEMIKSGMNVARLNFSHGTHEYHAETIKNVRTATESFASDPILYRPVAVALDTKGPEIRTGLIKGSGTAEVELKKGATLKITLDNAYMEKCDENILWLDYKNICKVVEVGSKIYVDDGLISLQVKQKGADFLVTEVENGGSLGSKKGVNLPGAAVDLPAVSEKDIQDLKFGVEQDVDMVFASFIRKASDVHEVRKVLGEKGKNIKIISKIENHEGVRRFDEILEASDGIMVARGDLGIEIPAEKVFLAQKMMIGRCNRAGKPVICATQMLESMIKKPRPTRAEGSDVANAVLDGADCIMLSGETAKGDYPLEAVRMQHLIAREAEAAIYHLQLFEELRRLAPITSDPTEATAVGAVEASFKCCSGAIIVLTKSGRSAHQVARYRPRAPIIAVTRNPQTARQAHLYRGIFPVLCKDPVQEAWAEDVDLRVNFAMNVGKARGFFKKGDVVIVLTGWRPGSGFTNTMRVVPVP

Five substances from article PMC5217008 can be followed below.

Experiment [1] deals with endogenous STAT5A (human (endogenous in NCI-H1299)) (UniProt P42229). Nature of the experiment: co-IP; cells transfected with wild-type, S202A or S202D PKM2 vectors, with or without IGF-1 for 30 min; immunoprecipitated with STAT5A-specific antibody; western blot with anti-PKM2 antibody.
For experiment [2], the target named is Flag-tagged pyruvate kinase muscle type 2 (PKM2) (UniProt P14618). Nature of the experiment: co-IP; nuclear fraction (nuclear extracts) of cells treated with IGF-1.
Experiment [3] has the same target. Nature of the experiment: co-IP; H1299 cells transfected with Flag-PKM2, starved, with or without IGF-1 (200 ng/ml); RIPA lysate; anti-Flag beads, 12 h at 4°C; eluted with Flag peptide (0.1 mg/ml); western blot with anti-AKT or STAT5A antibody.
Experiment [4] has as its target Myc/His-tagged wild-type PKM2 (UniProt P14618). Nature of the experiment: co-IP; anti-Myc antibody; lysates of cells expressing Myc/His-PKM2 and/or STAT5A, with or without IGF-1.

With “PKM2(S202A) (from UniProt P14618 1-531) (enzyme)”, the binding entry in experiment [1] is given as “no binding”.

Regarding “endogenous STAT5A (from UniProt P42229 1-794)”, the binding entry in experiment [2] and in experiment [3] was “binds” each time.

Turning to “PKM2(S202D), phosphorylation mimetic mutant (from UniProt P14618 1-531) (enzyme)”, in experiment [1], the binding result is “binds”.

Turning to “Myc/His-tagged wild-type PKM2 (from UniProt P14618 1-531) (enzyme)”, the binding result in experiment [1] was “binds”.

“STAT5A expressed from a transfected vector (from UniProt P42229 1-794)”: the binding result in experiment [4] is reported as “binds”.
